The whole screen tested about 340,000 compounds, of which about 6,900 (2%) were called active. Cut-off read from the data, not from the text of the source: active = inhibition above about 30%; inactive = below that, where a call was filed. This is a selection; strong and weak results do not stand in their true shares. The source gives no active or inactive call for entries shown without one.
target: D(2) dopamine receptor (Homo sapiens) (UniProt P14416); assay: HTS Assay for Allosteric Antagonists of the Human D2 Dopamine Receptor: Primary Screen for Antagonists; conditions: HEK293 TREx D2 cells, calcium flux, dopamine EC80; at 10 µM; stronger effect = higher value; note: 0% is about no effect
How it was run: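 Inhibition of EC80 dopamine-driven calcium flux, recorded kinetically, defines activity here; cells are a tetracycline-induced HEK293 T-REx line expressing force-coupled D2.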

UniProt P14416, sequence (P14416 whole entry, looked up): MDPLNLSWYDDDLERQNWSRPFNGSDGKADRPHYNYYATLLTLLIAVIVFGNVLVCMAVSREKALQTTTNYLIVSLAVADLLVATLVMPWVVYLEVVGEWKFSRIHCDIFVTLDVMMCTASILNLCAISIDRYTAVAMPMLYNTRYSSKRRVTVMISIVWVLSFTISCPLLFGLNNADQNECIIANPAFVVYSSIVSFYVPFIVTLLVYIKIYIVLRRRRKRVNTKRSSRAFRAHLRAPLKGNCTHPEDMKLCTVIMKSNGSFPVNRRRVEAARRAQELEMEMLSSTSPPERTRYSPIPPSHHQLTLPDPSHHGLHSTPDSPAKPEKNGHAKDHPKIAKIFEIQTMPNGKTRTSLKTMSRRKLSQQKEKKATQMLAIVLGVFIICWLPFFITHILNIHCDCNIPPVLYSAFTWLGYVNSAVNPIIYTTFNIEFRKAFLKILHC

| SMILES | inhibition |
| --- | --- |
| Cc1ccccc1C(=O)Nc1ccc2nc(SCCOc3ccccc3)sc2c1 | -7.73% |
| CCOC(=O)c1c(S(=O)(=O)NCC(=O)NCc2ccc(C)cc2)c(C)n(C)c1C | -17.4% |
| CCc1nnc(SCc2nc(-c3ccccc3)oc2C)c2cc3sccc3n12 | 0.992% |
| CCc1ccc(CNC(=O)Cc2c(C(=O)O)c(C)cn2C)cc1 | -2.67% |
| Cc1ccc(C)c(NC(=O)Cn2c(=O)n(Cc3cccs3)c(=O)c3cccnc32)c1 | -4% |
| CC(C)(C)OC(=O)N1CCC(c2c(C(=O)N3CCN(c4ncccn4)CC3)cnn2-c2ccc(F)cc2F)CC1 | 6.08% |
| COc1ccc(-c2cn3nc(N4CCC(C(=O)Nc5cc(Cl)ccc5OC)CC4)sc3n2)cc1 | 3.14% |
| CN(CC(=O)Nc1cccc(C#N)c1)Cc1ccc(Cl)cc1 | active: 68.3% |
| Cc1ccc(-c2cc(C(=O)N3CCN(S(=O)(=O)c4ccc(Br)s4)CC3)[nH]n2)c(C)c1 | 23.8% |
| CCOc1ccc(CCNC(=O)C2Cc3ccccc3N2C(=O)CC)cc1OCC (stereo unspecified) | -4.17% |
| Cc1ccc(N(CC(=O)Nc2ccc(Br)c(C)c2)S(=O)(=O)c2cccs2)cc1 | 3.12% |
| OC(CNCC#Cc1ccccc1)c1ccccc1 (stereo unspecified) | active: 39.1% |
| CN(C)c1ccc(CNC(=O)C(Cc2ccccc2)NS(=O)(=O)c2ccc3c(c2)oc(=O)n3C)cc1 (stereo unspecified) | -18.8% |
| O=C(NCc1ccccc1Cl)NC(=O)c1ccccc1 | active: 33.4% |
| COc1cccc(CCNc2ncnc3c2nnn3C)c1 | 10.4% |
| O=C(NCc1ccc(F)cc1)c1cc2c(s1)-c1ccccc1SC2 | 14.8% |
| O=C(CCCn1c(=O)c2ccccc2n(CC(=O)Nc2ccc(F)cc2F)c1=O)NCc1ccccc1Cl | 14.4% |
| COc1cc2c(=O)n(CCC(=O)NCC3CCCO3)c(=O)n(CC(=O)Nc3c(C)cccc3C)c2cc1OC (stereo unspecified) | -4.52% |
| CCCCOC(=O)c1ccc(NC(=O)/C(C#N)=C/c2ccc(-c3ccccc3)o2)cc1 | -6.98% |
| CCCCCCn1c(=O)[nH]c2nc3cc(N)ccc3nc2c1=O | active: 32% |
| Cc1ccc(S(=O)Cc2nc(-c3ccc(C(=O)NC(C)c4ccccc4)cc3)oc2C)cc1 (stereo unspecified) | 1.11% |

| SMILES | inhibition |
| --- | --- |
| CC(NC(=O)CSc1n[nH]c(-c2ccccc2)n1)c1nc2ccccc2n1C (stereo unspecified) | -15.6% |
| COc1cc(OC)c(NC(=O)c2cc(S(=O)(=O)N3CCCC3)cn2C)cc1Cl | -0.53% |
| CCC1CCCCN1C(=O)Cn1c(=O)n(CC2CCC(C(=O)NC)CC2)c(=O)c2sccc21 (stereo unspecified) | 15.7% |
| CCCCc1ccc(Nc2ncnc3c2cnn3-c2ccc(C)cc2)cc1 | 13.2% |
| Cc1ccc2c(c1)nc(SCC(O)c1ccc(Br)cc1)n2C (stereo unspecified) | -16.3% |
| COc1ccc(Cl)cc1S(=O)(=O)Nc1cccc(-c2ccc(N3CCOCC3)nn2)c1 | -20.9% |
| Cn1c(=O)c2sccc2n2c(CCC(=O)NCc3ccccc3)nnc12 | -4.99% |
| COc1ccc(N2CCN(Cc3nc4c(c(=O)[nH]c(=O)n4C)n3Cc3ccccc3)CC2)cc1 | 7.89% |
| Cc1ccc(C)c(CSc2nc3ccncc3n2Cc2nc(-c3ccccc3Cl)oc2C)c1 | 12.5% |
| Cc1ccc(C(C(=O)NC2CCCCC2)N(CCCN2CCOCC2)C(=O)c2snc(C(N)=O)c2N)cc1 (stereo unspecified) | active: 49.2% |
| CCc1nn(CC(=O)NC2CC2)c(=O)c2cc3ccccc3n12 | 7.05% |
| O=C(Cn1c(=O)nc(-c2ccccc2)c2cc(Cl)ccc21)NCCCc1ccccc1 | -4.14% |
| COc1cccc(CNC(=O)c2c3c(nc4ccccc24)C(=O)N(C2CCCCC2)C3)c1 | -1.01% |
| Cn1cc(C(=O)NCc2ccccc2)c(=O)c2cc(S(=O)(=O)N3CCCCCC3)ccc21 | 17.3% |
| Cc1cccc(C)c1NC(=O)CN(C)S(=O)(=O)c1ccc2c(c1)n(C)c(=O)c(=O)n2C | -13.5% |
| CCSc1nc(=O)c2c(n1C)NC(=O)CC2c1ccc(O)cc1OC (stereo unspecified) | 25.6% |
| CCc1ccc(OCC(=O)NCC(c2ccc(OC)cc2)N2CCOCC2)cc1 (stereo unspecified) | 6.33% |
| Nc1cc(S(=O)(=O)N2CCCCC2)ccc1N1CCOCC1 | active: 31.5% |
| COc1ccc(-n2c(=O)c3sc4ccccc4c3n(Cc3ccccc3)c2=O)cc1 | 9.54% |
| Cc1ccc2c(CNC3CCC(C)CC3)c(C(=O)O)n(Cc3cccc(F)c3)c2c1 (stereo unspecified) | 0.761% |
| Cc1cccc(C(=O)N(Cc2nc(-c3ccc(Cl)cc3)no2)C(C)C)c1 | -13.5% |

| SMILES | inhibition |
| --- | --- |
| CC(=O)c1cccc(NC(=O)Cn2c(C)c3cnn(-c4ccccc4)c(=O)c3c2C)c1 | -6.56% |
| CC1CCN(c2nc3ccc(C(=O)NCc4ccc(Cl)cc4)cc3s2)CC1 | 0.341% |
| COc1cc2c(cc1OC)C(c1ccc(F)cc1)N(c1ccc(F)cc1)C(=O)C2 (stereo unspecified) | -4.19% |
| COc1cc(NC(=O)c2cc3nc(-c4ccccc4)cc(-c4ccccc4)n3n2)c(OC)cc1Cl | 9.04% |
| COc1ccc(C2CC(=O)N(CC(=O)Nc3ccc(C(F)(F)F)cc3)c3ccccc3S2)cc1 (stereo unspecified) | -7.95% |
| COC(=O)c1ccc(OC)c(Cn2c(=O)n(-c3ccc(C)cc3)c(=O)c3c2cnn3C)c1 | -2.48% |
| COc1cccc(NC(=O)C2CCN(S(=O)(=O)c3cc(-c4noc(C)n4)ccc3C)CC2)c1 | 18.1% |
| COc1cc(-c2noc(-c3cc(C)[nH]n3)n2)cc(OC)c1OC | -0.34% |
| CCOc1ccc(NC(=O)c2cn3c4c(ccc(Cl)c4c2=O)OC(C)C3)cc1 (stereo unspecified) | -0.241% |
| CCn1cc(C(=O)N2CCN(c3ccccc3)CC2)c(=O)c2cc(S(=O)(=O)N3CCC(C)CC3)ccc21 | 0.239% |
| COc1ccc(C2CC(=O)c3c([nH]c(C(=O)OCCOc4ccccc4)c3C)C2)cc1OC (stereo unspecified) | 15.1% |
| COc1cccc(CNC(=O)c2cccn2-c2nnc(N3CCCC3)s2)c1 | -11.1% |
| Cc1ccc(-c2noc(C3CC(=O)N(c4ccc5c(c4)OCCO5)C3)n2)cc1 (stereo unspecified) | 11.6% |
| COc1ccc(CNC(=O)C2CCN(S(=O)(=O)c3cn(C)cn3)CC2)cc1 | -17.6% |
| COc1ccc(NC(=O)N(Cc2ccco2)C2CCN(C(C)=O)CC2)c(OC)c1 | 13.7% |
| COc1ccc2c(C)c(CCC(=O)NCc3ccc(OC)c(OC)c3)c(=O)oc2c1 | 16.5% |
| Cc1cc(-c2nc3ccccc3s2)ccc1NC(=O)c1cc(Cl)ccc1Cl | -7.88% |
| COc1ccc(C(C)(C)C)cc1NC(=O)CCCn1c(=O)oc2ccccc21 | active: 50.8% |
| COc1ccccc1/C=C/CN1CCC(Oc2cc(C(=O)NC3CC3)ccc2OC)CC1 | active: 59.2% |
